The whole screen tested about 310,000 compounds, of which about 14,000 (4.5%) showed an effect of 50% or more. Effects have a minus sign here. The list shows a part of the results.
target: human ether-à-go-go-related gene (hERG) potassium channel (human, UniProt Q12809); test: primary screen, population patch clamp on CHO cells stably expressing hERG
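Also: peak tail current of the secondary pulse compared with the same well before compound.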

Sequence of human ether-à-go-go-related gene (hERG) potassium channel (Q12809 whole entry, looked up): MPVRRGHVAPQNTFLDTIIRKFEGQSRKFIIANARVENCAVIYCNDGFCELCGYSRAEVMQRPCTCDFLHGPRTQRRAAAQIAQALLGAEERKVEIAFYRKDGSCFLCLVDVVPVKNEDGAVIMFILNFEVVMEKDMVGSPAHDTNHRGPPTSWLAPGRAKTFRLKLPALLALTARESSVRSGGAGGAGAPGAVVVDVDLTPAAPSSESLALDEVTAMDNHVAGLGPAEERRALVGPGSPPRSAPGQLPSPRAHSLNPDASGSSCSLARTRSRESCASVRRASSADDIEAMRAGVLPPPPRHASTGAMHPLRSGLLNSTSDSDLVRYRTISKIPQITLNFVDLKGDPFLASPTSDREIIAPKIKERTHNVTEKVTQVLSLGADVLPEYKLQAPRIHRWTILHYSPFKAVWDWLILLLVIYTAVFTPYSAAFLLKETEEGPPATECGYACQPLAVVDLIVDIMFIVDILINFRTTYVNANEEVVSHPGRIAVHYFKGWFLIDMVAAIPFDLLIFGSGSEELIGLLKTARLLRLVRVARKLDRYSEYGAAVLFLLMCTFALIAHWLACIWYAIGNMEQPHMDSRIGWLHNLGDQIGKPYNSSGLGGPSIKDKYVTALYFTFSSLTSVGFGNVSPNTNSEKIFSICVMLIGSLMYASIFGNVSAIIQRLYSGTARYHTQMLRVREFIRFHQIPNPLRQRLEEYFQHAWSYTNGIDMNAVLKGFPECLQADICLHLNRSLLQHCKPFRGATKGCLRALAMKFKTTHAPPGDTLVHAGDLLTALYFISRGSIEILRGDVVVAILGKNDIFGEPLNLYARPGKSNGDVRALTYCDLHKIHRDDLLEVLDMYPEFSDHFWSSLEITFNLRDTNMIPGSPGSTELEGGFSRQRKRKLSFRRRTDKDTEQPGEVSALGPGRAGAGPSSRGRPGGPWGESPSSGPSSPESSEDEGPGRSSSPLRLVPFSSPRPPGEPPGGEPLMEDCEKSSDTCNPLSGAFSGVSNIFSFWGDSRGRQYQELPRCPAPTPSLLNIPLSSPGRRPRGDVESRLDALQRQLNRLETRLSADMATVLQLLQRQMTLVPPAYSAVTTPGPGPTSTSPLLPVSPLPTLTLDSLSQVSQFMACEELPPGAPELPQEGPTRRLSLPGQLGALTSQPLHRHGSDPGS

| Structure (SMILES) | hERG current change (%, negative = inhibition) at 10uM [%] |
| --- | --- |
| O=C(NC1CCCCCC1)c1c(O)nc2sccn2c1=O | -22.8 |
| COC(=O)C(C#N)C(c1cccnc1)c1c(C)[nH][nH]c1=O (stereo not shown) | 11.1 |
| Cc1cc(=O)[nH]c(SCC(=O)Nc2cccc(C(F)(F)F)c2)n1 | -7.63 |
| CCOc1ccc2[nH]cc(-c3csc(N)n3)c2c1 | 23.8 |
| O=C(NCc1cccs1)C1CCCN1C(=O)Nc1ccc(Cl)cc1 (stereo not shown) | 33.9 |
| COc1cccc(NC(=O)CN2C(=O)NC3(CCCC3)C2=O)c1 | 12.3 |
| O=C(Nc1ccc(/C=C/c2nc3ccccc3o2)cc1)c1c(F)cccc1F | 1.43 |
| CCN(CC)CCCNC(=O)CC1Sc2ccccc2NC1=O (stereo not shown) | -4.33 |
| CC(NC(=O)c1sc2ccccc2c1Cl)C1CCCO1 (stereo not shown) | -16.4 |
| C=CCSc1nsc(NC(=O)Nc2cccc(C(C)=O)c2)n1 | 10.9 |
| CN(Cc1ccsc1)C(=O)CCc1nnc(Cc2c[nH]c3ccccc23)o1 | 0.146 |
| O=c1[nH]c(=O)n(C2CCCCC2)c(O)c1/C=N/N1CCCCC1c1cccnc1 (stereo not shown) | -13.6 |
| CC(=O)Oc1ccc(C2=NN(c3ccccc3)C(c3ccccc3)C2)cc1 (stereo not shown) | 15.9 |
| Cc1ccc(C(=O)CC(Nc2ccc(F)cc2)c2ccccc2)cc1 (stereo not shown) | 1.54 |
| O=c1nc2n(c3ccc([N+](=O)[O-])cc13)CCCCC2 | -15.4 |
| CSCc1nc2sc(C(=O)Nc3nc(C)cs3)c(C)c2c(=O)[nH]1 | -7.48 |
| COCCOC(=O)C1=C(C)NC2=C(C(=O)CC(C)(C)C2)C1c1ccc2c(c1)OCO2 (stereo not shown) | -11.8 |
| Cc1cc(N)ccc1NC(=O)c1ccccc1 | 12.4 |
| COc1ccc(NC(=O)c2nc[nH]c2C(=O)Nc2ccccc2C)cc1 | 5.48 |
| CC(=O)Nc1ccc(NC(=O)COC(=O)c2ccccc2C(=O)c2ccccc2)cc1 | -12.8 |
| O=C(O)Cn1c(=O)n(Cc2ccccc2)c2ccccc21 | 23.4 |
| O=C(CCN=C1NS(=O)(=O)c2ccccc21)OCC(=O)c1ccc(F)c(F)c1 | 11 |

| Structure (SMILES) | hERG current change (%, negative = inhibition) at 10uM [%] |
| --- | --- |
| COc1ccc(Nc2nc(NCc3ccco3)nc(N/N=C/c3ccccc3Cl)n2)cc1 | -10.6 |
| CC(C)c1ccccc1NC(=O)C1C2C=CC(C2)C1C(=O)O (stereo not shown) | 9.85 |
| O=S(=O)(c1cccc(C(F)(F)F)c1)N1CCN(C(=S)NCc2ccco2)CC1 | -5.8 |
| O=C(NCc1ccc(F)cc1)c1cc(-c2ccco2)on1 | 9.8 |
| CCOC(=O)C1CCCN(C2CC(=O)N(c3cccc(C)c3)C2=O)C1 (stereo not shown) | -8.58 |
| CCN(CC)Cc1c(O)ccc2c(=O)c(Oc3ccccc3OC)coc12 | 8.08 |
| CCOC(=O)C1(Cc2ccc(Cl)cc2)CCN(Cc2cnc(N)nc2)CC1 | -74.7 |
| COC(=O)CN1C(=O)[C@H]2[C@@H](c3ccc(C)o3)N3C(=O)CN(Cc4ccccn4)C(=O)[C@@]3(Cc3ccccc3)[C@H]2C1=O | 21.5 |
| Oc1ccc(NC(=S)Nc2ccc(F)cc2)cc1 | 3.14 |
| CCn1c(SCC(=O)NC2CC2)nnc1-c1ccc(F)cc1 | 8.99 |
| O=C1CCC(C(=O)N2CCSCC2)CN1Cc1cccc(C(F)(F)F)c1 (stereo not shown) | -0.468 |
| CCOC(=O)C1=NOC(CNC(=O)c2ccccc2Cl)C1 (stereo not shown) | 9.33 |
| Cc1ccc(S(=O)(=O)/N=C(/Sc2ccccc2C(=O)O)c2ccccc2)cc1 | 17.6 |
| COCCNC(=O)[C@@H]1CSC2c3ccc(OC)c(OC)c3C(=O)N21 (stereo partly shown) | 21.3 |
| O=C(Nc1ccccc1-c1nnn(CC(=O)N2CCOCC2)n1)c1ccccc1F | -10.2 |
| CCSc1nnc(NC(=O)CSc2nnc(-c3c[nH]c4ccccc34)n2C)s1 | 7.98 |
| COc1ccc(N(C(C)C(=O)N/N=C/c2ccc(OC)c(OC)c2)S(C)(=O)=O)cc1 (stereo not shown) | 5.24 |
| CCC(C)NC(=O)C1CCCN(S(=O)(=O)c2ccc(-n3cnnn3)cc2)C1 (stereo not shown) | -6.39 |
| OCCN1CCN(c2ncnc3sc4c(c23)CCCC4)CC1 | -12.2 |
| Cc1ccccc1OCC(=O)Nc1cc(S(=O)(=O)N2CCOCC2)ccc1N1CCCC1 | -28 |
| Nc1ccc(S(=O)(=O)Nc2nccc(/C=C/c3ccc([N+](=O)[O-])cc3)n2)cc1 | 9.52 |
| O=C(/C=C/c1ccc2c(c1)OCO2)NCCSCc1c(Cl)cccc1Cl | 0.181 |

| Structure (SMILES) | hERG current change (%, negative = inhibition) at 10uM [%] |
| --- | --- |
| CSc1nnc(C)c(=O)n1COC(=O)c1ccc([N+](=O)[O-])cc1 | -30.8 |
| COc1cc(C)nc(Oc2ccc(/C=N/O)cc2)n1 | 13.9 |
| CCOCc1nnc(NC(=O)c2ccc3c(c2)OCO3)s1 | -10.9 |
| COc1cc(C(=O)N/N=C/C2CC=CCC2)cc(OC)c1OC (stereo not shown) | -7.28 |
| CCOC(=O)c1cccc(N/C=C/C(=O)c2ccc(OC)c(OC)c2)c1 | 14.4 |
| CCOC(=O)N1CCN(C(=O)c2ccc(N(Cc3ccccc3)S(C)(=O)=O)cc2)CC1 | -10.2 |
| CCOC(=O)C1CCCN(C(=O)c2cc3nc(-c4ccc5c(c4)OCO5)cc(C(F)(F)F)n3n2)C1 (stereo not shown) | -0.76 |
| CC(=O)N(Nc1ccccc1)c1ccccc1 | 16.4 |
| O=C(Nc1cccnc1)c1ccc(F)cc1 | 12.4 |
| CCOC(=O)C1CCCN(S(=O)(=O)c2ccc(S(=O)(=O)N3CCCC3)cc2)C1 (stereo not shown) | 1.58 |
| COc1ccc(CNC(=O)c2cc3c(s2)CN(Cc2ccccc2)C3)cc1.Cl | -44.2 |
| CSCCC(NC(N)=O)C(=O)Nc1cccc(S(=O)(=O)N2CCOCC2)c1 (stereo not shown) | 19.2 |
| CC1CCC(NC(=O)CN2C(=O)COc3ccc(S(=O)(=O)N4CCCC4)cc32)CC1 (stereo not shown) | -7.33 |
| Cc1cc(C)nc(-n2ncc3c2CC(c2cccc(Cl)c2)CC3=O)n1 (stereo not shown) | 0.128 |
| CC1CN(C(=O)c2cccc(COc3ccc(Br)cc3)c2)CC(C)O1 (stereo not shown) | -37.6 |
| Cc1nc(C)c(CC(=O)N2CCc3c([nH]c4ccccc34)C2c2ccccn2)s1 (stereo not shown) | -7.41 |
| Cc1cc(C2CC(=O)Nc3ccccc3S2)c(C)s1 (stereo not shown) | -8.4 |
| Cc1cc(C(=O)NCC(c2ccco2)N(C)C)no1 (stereo not shown) | 8.04 |
| CCN(CC)S(=O)(=O)c1ccc(C)c(NC(=O)CN2CCN(C)CC2)c1.O=C(O)C(=O)O | -12.4 |
| CCOC(=O)C1(CCCc2ccccc2)CCN(C(=O)c2cncs2)CC1 | -55 |
| CCc1ccc(NC(=S)N(CCN2CCCCC2)Cc2ccco2)cc1 | -75.4 |
| CCCC(c1nnnn1Cc1ccc(OC)cc1)N1CCN(c2ccccc2OC)CC1 (stereo not shown) | -8.59 |

| Structure (SMILES) | hERG current change (%, negative = inhibition) at 10uM [%] |
| --- | --- |
| O=C1C(Nc2cccc(O)c2)=C(N2CCCCC2)C(=O)c2ccccc21 | -3.89 |
| Cc1cc(/C=C2\C(=O)NC(=O)N(c3cccc(Br)c3)C2=O)c(C)n1C | 0.841 |
| N#CC(C(=O)c1ccccc1Cl)=C1SCCCS1 | -30 |
| O=C(c1ccco1)N1CCN(C(=O)c2cc(=O)[nH]c3ccccc23)CC1 | 12.6 |
| O=C(CSc1ccccn1)Nc1ccccc1F | -15.5 |
| CCOc1ncccc1C(=O)N1CCN(C(c2ccccc2)c2ccccc2)CC1 | 5.75 |
| COc1ccc(CC(C)CC(=O)NCCc2ccc(OC)c(OC)c2)cc1 (stereo not shown) | 18.9 |
| Cc1cc(N2CCN(c3ccccc3Cl)CC2)n2cc(-c3ccccc3)nc2n1 | -53.9 |
| COC(=O)c1ccc(C2N=C(c3cccs3)CC(c3ccccc3O)N2)cc1 (stereo not shown) | 13 |
| Cc1cc(C)cc(N(CCC(=O)Nc2nnc(C3CC3)s2)S(=O)(=O)c2ccc(Cl)cc2)c1 | 4.63 |
| COC(=O)c1ccc(SCc2ccccc2)nc1 | 15.2 |
| CCOC(=O)C(C)N1C(=O)S/C(=C/c2cc(C)n(-c3ccccn3)c2C)C1=O (stereo not shown) | -0.671 |
| COc1ccc2ccc(=O)oc2c1 | -2.62 |
| COc1ccc(C(=O)N/C(=C\c2ccccc2)C(=O)N2CCOCC2)cc1 | -8.27 |
| Cc1cc(C)nc(NC(C)(C)C(=O)O)n1 | 14.6 |
| Cc1cc2nnc(SCC(=O)N(C)C3CCS(=O)(=O)C3)n2c2ccccc12 (stereo not shown) | -8.99 |
| Cc1cccc(-c2nc(=S)c3c(n2Cc2ccco2)CCCC3)c1 | 7.14 |
| COCCn1nnnc1C(CC(C)C)N1CCN(c2nc3ccccc3s2)CC1 (stereo not shown) | -9.4 |
| O=[N+]([O-])c1ccc(N2CCN(S(=O)(=O)c3ccccc3)CC2)c2cccnc12 | -76.8 |
| O=C(O)Cn1c2ccccc2c2n[nH]c(=S)nc21 | 16.7 |
| C=CCN(c1ccccc1OC)S(=O)(=O)c1cccc(C(=O)OCC(=O)c2c[nH]c3ccccc23)c1 | 9.96 |
| O=C(Nc1cc(-c2ccccc2)nn1-c1ccccc1F)c1ccc([N+](=O)[O-])cc1 | -4.53 |

— publication PMC4336329 (PLoS ONE, 2015)
